Source: patent publication US20200016266A1 (INIS BIOTECH, published 2020)

How the values were obtained:
Assay in all cases: anti-HA bead immunoprecipitation of KDR-HA from HEK 293T lysates, incubation with Gal1 and Alexa Fluor 488 anti-Gal1 Ab, flow cytometry; % relative to KDR-HA WT
Ig5 = target: T1, Ig5 (Homo sapiens, UniProt P35968)
T1 construct: full length, HA-tagged, expressed in HEK 293T cells; mutant named only by its domain on the sheet; also called KDR-HA-Ig-5

Ig6 = target: T2, Ig6 (Homo sapiens, UniProt P35968)
Chain of Ig6 (P35968 other isoform, or with tags, fused parts or gaps limits assumed): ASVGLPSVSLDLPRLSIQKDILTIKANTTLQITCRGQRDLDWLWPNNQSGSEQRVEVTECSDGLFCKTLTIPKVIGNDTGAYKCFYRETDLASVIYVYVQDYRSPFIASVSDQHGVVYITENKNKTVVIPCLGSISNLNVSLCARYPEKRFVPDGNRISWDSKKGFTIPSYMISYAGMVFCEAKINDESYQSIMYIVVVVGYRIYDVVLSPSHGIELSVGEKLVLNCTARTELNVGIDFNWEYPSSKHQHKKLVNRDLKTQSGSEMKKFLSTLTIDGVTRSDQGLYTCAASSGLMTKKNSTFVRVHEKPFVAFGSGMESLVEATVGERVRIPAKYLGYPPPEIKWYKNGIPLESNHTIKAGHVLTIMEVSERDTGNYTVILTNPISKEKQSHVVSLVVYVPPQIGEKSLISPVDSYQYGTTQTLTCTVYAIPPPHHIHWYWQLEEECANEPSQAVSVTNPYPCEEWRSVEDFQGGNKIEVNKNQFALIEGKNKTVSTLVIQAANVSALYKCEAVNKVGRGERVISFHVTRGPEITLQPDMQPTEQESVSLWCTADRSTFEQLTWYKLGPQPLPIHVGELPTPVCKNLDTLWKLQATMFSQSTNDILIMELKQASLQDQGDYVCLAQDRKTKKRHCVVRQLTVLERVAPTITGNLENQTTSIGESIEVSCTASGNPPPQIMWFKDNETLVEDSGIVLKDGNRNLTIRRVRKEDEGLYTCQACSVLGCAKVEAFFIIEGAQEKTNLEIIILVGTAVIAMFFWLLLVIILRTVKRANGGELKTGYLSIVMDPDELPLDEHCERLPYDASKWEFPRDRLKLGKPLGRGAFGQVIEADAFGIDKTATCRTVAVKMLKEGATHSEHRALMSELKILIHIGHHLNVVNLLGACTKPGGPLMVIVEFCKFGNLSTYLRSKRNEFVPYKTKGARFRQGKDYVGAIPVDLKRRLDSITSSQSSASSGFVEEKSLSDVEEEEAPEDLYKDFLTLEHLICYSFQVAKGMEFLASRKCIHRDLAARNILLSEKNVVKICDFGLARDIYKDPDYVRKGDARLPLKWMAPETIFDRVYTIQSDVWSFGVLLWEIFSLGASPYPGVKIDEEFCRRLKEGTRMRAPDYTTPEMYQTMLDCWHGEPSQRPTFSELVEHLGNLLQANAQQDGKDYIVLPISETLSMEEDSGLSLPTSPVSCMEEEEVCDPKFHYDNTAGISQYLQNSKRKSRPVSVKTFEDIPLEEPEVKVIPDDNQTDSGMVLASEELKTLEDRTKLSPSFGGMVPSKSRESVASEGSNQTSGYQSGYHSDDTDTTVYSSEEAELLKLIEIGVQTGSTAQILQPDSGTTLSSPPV
T2 construct: full length, HA-tagged, expressed in HEK 293T cells; mutant named only by its domain on the sheet; also called KDR-HA-Ig-6

[1] = target: T3, HA-tagged human VEGFR2 (KDR) mutant devoid of N-glycosylation sites in Ig-like domain 3 (N245Q, N318Q), … (human, UniProt P35968)
T3 construct: mature; Expressed in HEK-293T cells and captured from them on anti-HA fluorescent beads; I took it as full length, as for the wild-type KDR-HA; also called Ig-3 mutant; VEGFR2 Ig-3 (N245Q, N318Q)

[2] = target: T4, HA-tagged human VEGFR2 (KDR) mutant devoid of N-glycosylation sites in Ig-like domain 4 (N374Q, N395Q), … (human, UniProt P35968)
T4 construct: mature; Expressed in HEK-293T cells and captured from them on anti-HA fluorescent beads; I took it as full length, as for the wild-type KDR-HA; also called Ig-4 mutant; VEGFR2 Ig-4 (N374Q, N395Q)

[3] = target: T5, HA-tagged human VEGFR2 (KDR) mutant devoid of N-glycosylation sites in Ig-like domain 7 (N675Q, N704Q, … (human, UniProt P35968))
T5 construct: mature; Expressed in HEK-293T cells and captured from them on anti-HA fluorescent beads; I took it as full length, as for the wild-type KDR-HA; also called Ig-7 mutant; VEGFR2 Ig-7 (N675Q, N704Q, N721Q)

Chain of Ig5 (P35968 20-1356 N511Q/N523Q limits assumed): as the sequence (P35968 other isoform, or with tags, fused parts or gaps limits assumed) above, with N492Q, N504Q, Q561N, Q594N, Q600N, Q612N counted along it

binding result (Ig5): binds
binding result (Ig6): binds
binding result [1]: binds
binding result [2]: binds
binding result [3]: binds
B1: Galectin-1 (human recombinant Gal1) (ligand)
chain: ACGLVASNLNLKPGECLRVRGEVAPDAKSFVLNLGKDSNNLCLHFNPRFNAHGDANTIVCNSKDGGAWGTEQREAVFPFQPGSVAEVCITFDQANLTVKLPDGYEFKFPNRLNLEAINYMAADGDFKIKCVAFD
modifications: DyLight 594 label in the FRET assay only
notes: Recombinant Gal1 made in-house; also called rhGal1; 594-Gal1
